# Measured values published in paper PMC12136788.
# This is one part of the list.
# T1: UNK ZnF1-3 (human, UniProt Q9C0B0 31-174)
# T1 sequence: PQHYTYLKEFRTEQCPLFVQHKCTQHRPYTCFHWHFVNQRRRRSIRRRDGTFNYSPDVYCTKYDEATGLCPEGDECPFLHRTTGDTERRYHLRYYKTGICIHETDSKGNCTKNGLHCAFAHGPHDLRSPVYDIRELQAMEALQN
# B1: chr14:89307221:89307222:+_ENSG00000165533_ENST00000346301|hu_mus|hu_hu_hu_mus_False|58_78 (ssRNA)
# RNA: GGGAGUUCUACAGUCCGACGAUCUCCUGUUUGGUUAGUGCCAGGGAGCUUCAAAGACGUUCCAGGGCGUGGGACCUGAGCUAUAGCAUUUUCAUCCAGGAUCAUUUCAGCAAUUCCUUCCUGGUCCACAUCAAUUUCAUCUAUCAACAGAGGAUUGAGCAUCA
# B2: chr7:127792870:127792871:+_ENSMUSG00000030884_ENSMUST00000033176|mus_hu|motif|central (ssRNA)
# RNA: GGGAGUUCUACAGUCCGACGAUCUGUGAAAUGGUUCUGAACGAAGUAAUGUAACUCCUCUGAUGUCACUUUUCCAAUCCGGUAGUCAGGACAAUACAAGGGAUUAGCCAAGGCAUUCCGGUAAGCUGCUGCAUGCAAAUUUUCCAACAGAGGAUUGAGCAUCA
# B3: chr16:8992458:8992459:-_ENSG00000187555_ENST00000381886|hu_hu|motif|central (ssRNA)
# RNA: GGGAGUUCUACAGUCCGACGAUCUUGUCUAGGCUUGAAGAACUGUAGAAGAUCUCUUAAAGUACCUUCAUAAUUAUGUCGGAGAGGAUUACCUGGGCCAUCCCUAUAACCUUGAGACUUGAAAAACUGCAGCAACAUUGGAUCCAACAGAGGAUUGAGCAUCA
# B4: 88679131_88681301_1668_3pUTR_ENSG00000107779_ENST00000372037|human|control|control (ssRNA)
# RNA: GGGAGUUCUACAGUCCGACGAUCGGGCACAUCAACUUCAUUUGUGUCACUGUUGAAUUUAACAGCAAGGCCCAGGUCAGCAAUGCAGCAACUCCCAUUUUUCUUGAUGAGGAUGUUUUUGCUCUUUAGGUCUCGAUGAGCAAUCAACAGAGGAUUGAGCAUCA
# B5: chrX:98862621:98862622:+_ENSMUSG00000034160_ENSMUST00000044475|mus_hu|FALSE|FALSE (ssRNA)
# RNA: GGGAGUUCUACAGUCCGACGAUCCUGCAUCUCCUUUAGAGUGUUUCCCAUAUUAGAGUAGGCAUCAGCAAAGGUAGGACUGAUUCGAAUAGCCUCCUUAUAAUGCAUCAGAGCUUCCUGCAGUUUUCCCUGCUGCUGCAGUACCAACAGAGGAUUGAGCAUCA
# B6: 72874030_72877353_3546_CDS_ENSG00000009954_ENST00000339594|human|control|control (ssRNA)
# RNA: GGGAGUUCUACAGUCCGACGAUCUUUCUCUAAUGAAAUGACCCGGGCUUCAAAUUCUGAUGUUUCUUCCACAUAUCCAAGUCCUCCUUUUUGUAACCUUGUUGCAACUUCAAUGAGAUCACUACGAAGGAAGUUUAAAAGCUCCAACAGAGGAUUGAGCAUCA
# B7: chr16:94664741:94664742:+_ENSMUSG00000040785_ENSMUST00000117648|mus_hu|mus_mus_mus_hu_False|28_28 (ssRNA)
# RNA: GGGAGUUCUACAGUCCGACGAUCUGGUACUGAUCUUGGUAGCUGAUAUUCAGGAGAAAGGCUGGCCAAGGGUGUAUAUAUGCUGGUGUACUGGGGCAAACCUGGUACCAUGUUAAUGUAUGCUGGCGGUGUCUGGGUGAUAUCCAACAGAGGAUUGAGCAUCA
# B8: chrX:140365796:140365797:-_ENSMUSG00000031285_ENSMUST00000033642|mus_mus|mus_mus_mus_hu_False|28_98 (ssRNA)
# RNA: GGGAGUUCUACAGUCCGACGAUCCUUCUCAUUACUCAAUGCCUGCAAGGUUCUGGUUCGGUAGAAGCUACAGUGGGCGCUGUGAGUGGGGCUAGGCAACCCAUUCAUCCGUGACCCUCGCAUGUUCCUGGAUGUCUUAUCUCUCAACAGAGGAUUGAGCAUCA
# B9: chr6:86328614:86328615:-_ENSG00000135316_ENST00000355238|hu_mus|FALSE|FALSE (ssRNA)
# RNA: GGGAGUUCUACAGUCCGACGAUCCUGAGCUUUUCUUUCUUUCCUCUUCUGAUCUGGUGGCUUAGCAAAAACAAUUUCAAUAUUUUCUCCCUCCAAGUCUUUACCAUUCAUUUCUUCCAUAGCCUUGACAGCACCAUCUCUCUCCAACAGAGGAUUGAGCAUCA
# B10: chr11:50626376:50626377:-_ENSMUSG00000044807_ENSMUST00000109135|mus_mus|motif|central (ssRNA)
# RNA: GGGAGUUCUACAGUCCGACGAUCUCAGAGCUGAAGACCUCGAUUCUUAAAAGGUUAUAAAUUAAAAGUUUCUCUGAUUCGGAAAUGCAAACAGGUUCAUAGCAGGAGACUCUUGUUAACAAUGGCCUUCUACAAUACGUAAUACAACAGAGGAUUGAGCAUCA
# B11: chr11:87793471:87793472:-_ENSMUSG00000020483_ENSMUST00000020775|mus_mus|mus_mus_mus_hu_False|18_48 (ssRNA)
# RNA: GGGAGUUCUACAGUCCGACGAUCUGGACUUGAAAAUAAAAGAAUAAGCUGGAUCCCCCACCCCCCCACAUUGUCAACCCUACACGAGUUCUGAAUGGGCGACUCAUGAAAAUCAGCCUCAAUUGGCGCAAUGACCACCCCACCCAACAGAGGAUUGAGCAUCA
# B12: chr6:114281168:114281169:-_ENSG00000196591_ENST00000368632|hu_hu|hu_hu_hu_mus_True|1_78 (ssRNA)
# RNA: GGGAGUUCUACAGUCCGACGAUCUUCCAUUUUUCGGUAUAAACCAUAAUUUAGCAGCAAGUUAUGGGUCAUCCGGAUUCUAUGAGGCUUCAUGGGAUGACCCUGGCCAUAAUAAUAAUUGCCAAUAUCACCAUCAUACUAGAACAACAGAGGAUUGAGCAUCA
# B13: 7809221_7809904_4510_CDS_ENSG00000170004_ENST00000380358|human|control|control (ssRNA)
# RNA: GGGAGUUCUACAGUCCGACGAUCACACAGAUGGCGCAUGAACAAAGACACAUAGGCCUUAAACUCCUUCUCAGUCUUGCCCCUCAGGUCCCGCACCAGCCACUGUGUGGUGAAGGCAUCCUGUGGUGGCAUCCCCCAGCGCAUCAACAGAGGAUUGAGCAUCA
# B14: chr14:56483160:56483161:+_ENSMUSG00000075592_ENSMUST00000168479|mus_mus|motif|central (ssRNA)
# RNA: GGGAGUUCUACAGUCCGACGAUCAAUUCCUUUAUCUCCCACAGAUGUUGAAGACUGCCCUACUUGCAGAAGUCCCGGGCGGACCUUCUCUUUGAUACCACAACCCCCUGGCACCACCGAUAAACUGAUGAUUUUGGAGGGAAUCAACAGAGGAUUGAGCAUCA
# B15: chr4:95690885:95690886:+_ENSMUSG00000028572_ENSMUST00000156910|mus_mus|mus_mus_mus_hu_False|28_68 (ssRNA)
# RNA: GGGAGUUCUACAGUCCGACGAUCUUUAGAAAAUGUUAAAUACCAUGCUAAAAUAUUUUCAAAGGCUAGUCUUAUUUUACCAGAAGUCACAGGCAAGCAGACACUACAAACAUACAAGAAAAUGAAACUCAACAAUAUAACUGUCAACAGAGGAUUGAGCAUCA
# B16: chr2:198351390:198351391:-_ENSG00000144381_ENST00000345042|hu_hu|hu_hu_hu_mus_False|28_108 (ssRNA)
# RNA: GGGAGUUCUACAGUCCGACGAUCUCAUUCUCACUCUCCACAGAAAGGCUGCUUCUGAACUCUCAUGUGGUGACACAGCGCUACAGUCCUGAUGCUCACAGAACAGUAGUAAAAAUGCAGUGAUUUAAGUUGAAAGCAGGACACCAACAGAGGAUUGAGCAUCA
# B17: chr1:60041781:60041782:+_ENSMUSG00000041040_ENSMUST00000036540|mus_hu|mus_mus_mus_hu_False|1_1 (ssRNA)
# RNA: GGGAGUUCUACAGUCCGACGAUCAAGUUUACAAUAGUAAAGUAAAUGCAGUAGUGGCAAAUUUUCUUUUAUUUUCCUUCACAAAAGAAAAUCUUUAUAACCCAGUCCUAGUCUUGGACAUAGUGAAAGCUAUAAAUGCCACUGCAACAGAGGAUUGAGCAUCA
# B18: chr1:150923288:150923289:+_ENSG00000143379_ENST00000271640|hu_hu|motif|central (ssRNA)
# RNA: GGGAGUUCUACAGUCCGACGAUCCAAACAGAACAUCUCCAGGAAGAGGAAGUCACAGCCAGUCUCGAAAAGGUAGCGUUCGGUCUCCUGCAUUGUCCGAAGGCAGAGACCACAAGGUGUCUUAUAGAUAACAUGAAAGCCCAUCAACAGAGGAUUGAGCAUCA
# B19: 187367305_187368869_812_CDS_ENSG00000065548_ENST00000337859|human|control|control (ssRNA)
# RNA: GGGAGUUCUACAGUCCGACGAUCAAAUCCAGGAGGAAGUGCAUGACGAUACAUGCAAAUAUCACCCCCUCCAGGGCAUACCCAAAACCAGCCAUACUUGUUGUUUUCAAUAGCUUCCAGGAAAUGCUUGCACACUAUUUGAGUCAACAGAGGAUUGAGCAUCA
# B20: chr1:187239687:187239688:+_ENSMUSG00000026615_ENSMUST00000046514|mus_hu|FALSE|FALSE (ssRNA)
# RNA: GGGAGUUCUACAGUCCGACGAUCCCAGGAGUUUUGAUAGGCAAAUUGCUUCUCUCCUGGUAUCUUUGGAUCUUCAAAAACGAUUUCAAACAUUUUGGAAAAAUUCUGCCCUAAAUGAUGUGAUGUUCCUCCCUGGAUAGCUCUCAACAGAGGAUUGAGCAUCA
# B21: chr4:39918803:39918804:-_ENSG00000121892_ENST00000303538|hu_hu|FALSE|FALSE (ssRNA)
# RNA: GGGAGUUCUACAGUCCGACGAUCUACAUGUUCUGACAAAUCACUUACUGAUGAUCUUCCCAGCACCAGGACUUGAUUGAAAAAAUUAGCAAUGCAUGCCUCAAUAGUCUGGACUGUUCUUUUCAAUAGCACUUUUGCAAGGUCCAACAGAGGAUUGAGCAUCA
# B22: chr4:95690885:95690886:+_ENSMUSG00000028572_ENSMUST00000156910|mus_mus|mus_mus_mus_hu_False|1_1 (ssRNA)
# RNA: GGGAGUUCUACAGUCCGACGAUCUUUAGAAAAUGUUAAAUACCAUGCUAAAAUAUUUUCAAAGGCUUAUUUUAUUUUACCAGAAGUCACAGGCAAGCAGACACUACAAGAAUAUAUGAAAAUGAAACUCAACAAUAAAAUGUACAACAGAGGAUUGAGCAUCA
# Molecular target: T1, UNK ZnF1-3
# Assay: nsRBNS (natural sequence RNA bind-n-seq); RBNS binding buffer (assumed for nsRBNS): 25 mM Tris pH 7.5, 150 mM KCl, 3 mM MgCl2, 0.01% Triton X-100, 500 ug/ml BSA, 20 U/ml SUPERase-In, 4 C; UNK is unkempt and MSI1 is Musashi-1; names of the RNAs are library labels; protein concentration not given here; high values mean tight binding
row,Binder,binding signal [enrichment R]
1,B1,0.828
2,B2,1.18
3,B3,1.9
4,B4,0.876
5,B5,1.12
6,B6,1.22
7,B7,1.05
8,B8,0.767
9,B9,0.799
10,B10,1.68
11,B11,1.62
12,B12,0.714
13,B13,1.25
14,B14,0.805
15,B15,1.63
16,B16,1.4
17,B17,0.69
18,B18,1.41
19,B19,1
20,B20,0.818
21,B21,0.823
22,B22,1.82
